# From the supplement of paper PMC10986608
# Some of the results follow. Single values are uncertain, as repeats are few or missing.
# Tested on: Candida albicans DPL-15
# Test: growth (OD600) after compound treatment (apparently relative to screen median) (relative growth (fraction; screen median 1.02)); DPL-15 is a caspofungin-resistant clinical isolate; higher = more fungal growth (less antifungal activity)
# Settings: 25 µM; RPMI 1640; 48 h; 30 °C
row,Structure (SMILES),growth
1,C[C@H]1C[C@H]2CC(=O)N[C@@H](Cc3ccccc3)C(=O)N2[C@H]1c1ccccc1,1.09
2,O[C@@H](Cc1ccccc1)[C@@H](/C=C/c1ccccc1)NCCc1ccccc1,1.02
3,COc1ccc(-n2nc(C)c3c2C(=O)NC3c2ccccc2)cc1 (stereo not given),0.968
4,O=C1CC2(CCCCC2)CNC(=O)c2cccc(c2)-c2cc(n[nH]2)COC[C@H](c2ccccc2)N1,0.909
5,COc1ccc(N2C(=O)c3[nH]nc(CC(C)C)c3[C@H]2c2ccccc2Br)cn1,1.06
6,CC(C)=CCc1ccc(O)c2oc3ccccc3c(=O)c12,0.726
7,CO[C@@H]1[C@H](O)CC[C@]2(O)CN(CC3CC3)[C@@H](CC=C(C)C)[C@](C)(O)[C@@H]12,1.09
8,COc1ccc([C@@]23Oc4cc(OC)c(Cl)c(OC)c4[C@]2(O)c2nc4n(c(=O)c2[C@H]3c2ccccc2)CCC4)cc1,1.08
9,CC(=O)C1=C2C=CCCN2C(=O)NC1c1cc(F)ccc1F (stereo not given),1.18
10,CO[C@@H]1[C@H](O)CC[C@]2(O)CN(c3nc(-c4ccccc4)cs3)[C@](C)([C@H](O)CC=C(C)C)[C@@H]12,0.935
11,CO[C@@H]1[C@H](O)CC[C@]2(O)CN(c3ccc(C#N)cc3)[C@@H](CC=C(C)C)[C@](C)(O)[C@@H]12,0.909
12,CC[C@]1(Cc2occc(=O)c2OS(C)(=O)=O)C(c2ccccc2)=Nc2ccccc21,1.11
13,COC(=O)C/C=C/[C@H](C)[C@@H](NC(=O)[C@H](CC(C)C)NC(=O)OC(C)(C)C)c1ccccc1,1.12
14,COc1cc([C@@H]2[C@@H](C(=O)Nc3ccccc3)[C@H](C(=O)Nc3ccccc3)[C@H]2c2ccc(O)c(OC)c2)ccc1O,0.822
15,CC(C)C1=C[C@@H]2[C@H]3C(C(C(C)C)=CC(=O)[C@@]3(C)O)C1C(=O)[C@@]2(C)O (stereo not given in full),1.03
16,COc1ccc(N2C(=O)C3=C(C(c4ccccc4)=NCCN3)C2c2ccc(C)cc2)cc1 (stereo not given),0.908
17,COC(=O)C1=C(C)N(C)C(=S)NC1c1ccc(OC)cc1 (stereo not given),1.13
18,CO[C@@H]1[C@H](O)CC[C@]2(O)CN(c3cc(C)ccc3C)[C@@H](CC=C(C)C)[C@](C)(O)[C@@H]12,0.892
19,CCNC1=NC(c2ccc(C(F)(F)F)cc2)C(C(=O)OC)=C(C)N1Cc1cccc(C(F)(F)F)c1 (stereo not given),0.745
20,COc1cc2c(cc1OC)CN(CCc1ccc([N+](=O)[O-])cc1)CC2,0.927
